Experimental data reported in ChEMBL document CHEMBL4888484, “Replenishing the malaria drug discovery pipeline: Screening and hit evaluation of the MMV Hit Generation Library 1 (HGL1) against asexual blood stage Plasmodium falciparum ,using a nano luciferase reporter read-out” (2022).
The whole screen tested about 150,000 compounds, of which about 540 (0.36%) showed an effect of 50% or more. The list shows a part of the results.

The compounds below were run on Plasmodium falciparum (assay: Primary screen in NF54 nanoGlo assay, in single point, at 2uM, 72h; a lower Z score goes with more inhibition). Conditions: timepoint 72 hour.
Type: functional, Erythrocyte
With `CC(=O)c1cc(Br)ccc1NCC(=O)N(C)CCC#N` the “% Inhibition” value was -26% and the Z score was 2.93.
For `CCOc1ccccc1/N=C(\NCCc1c(C)nn(C)c1C)NC(=O)c1ccc(F)cc1`, the “% Inhibition” value was -4% and the Z score was 0.76.
With `CC(NC(=O)C1CCC(=O)N1)c1ccc(Oc2ccccc2)cc1` (stereo not drawn) the “% Inhibition” value was -10% and the Z score was 0.96.
With `FC(F)(F)c1ccc2sc(N3CCc4cncnc4C3)nc2c1` the “% Inhibition” value was -17% and the Z score was 1.72.
In the case of `CCn1cnc2c(N(C)C[C@H](O)c3cccnc3)ncnc21`, the “% Inhibition” value is reported as -3% and the Z score is reported as 0.42.
For `Cc1ccc(S(=O)(=O)Cc2nnn(C)n2)cc1`, the “% Inhibition” value was -5% and the Z score was 0.51.
With `CCCCNC(=O)N1CC[C@H](c2ccn[nH]2)C1` the “% Inhibition” value was -16% and the Z score was 1.68.
With `CCCc1noc(C(C)NC2CCN(S(C)(=O)=O)CC2CC)n1` (stereo not drawn) the “% Inhibition” value was -1% and the Z score was 0.13.
With `O=C(CN1CCC2(CC1)NC(=O)N(Cc1ccc(Cl)cc1)C2=O)Nc1ccc(F)cc1F` the “% Inhibition” value was 30% and the Z score was -0.84.
For `C[C@@H](c1cccc(O)c1)N1C(=O)NC(CC(F)(F)F)C1=O` (stereo partly drawn), the “% Inhibition” value was -10% and the Z score was 1.48.
With `CCN1CCN(C(=O)CCc2nnc3ccc(N4CCOCC4)nn23)CC1` the “% Inhibition” value was -19% and the Z score was 1.86.
In the case of `CCC(NC1CC(C)(c2ccccc2)C1)C1CCCO1` (stereo not drawn), the “% Inhibition” value is reported as -6% and the Z score is reported as 0.66.
With `Cc1cccc(Cl)c1NC(=O)N(C)CCN(C)C` the “% Inhibition” value was -9% and the Z score was 1.39.
In the case of `COc1ccc(C(=O)N2c3cc(C)ccc3[C@](C)(c3ccccc3)CC2(C)C)cc1`, the “% Inhibition” value is reported as -8% and the Z score is reported as 1.04.
For `Cc1ccc(C(=O)NC2(c3nnc4n3CCCC4)CCC2)c(Cl)c1`, the “% Inhibition” value was 9% and the Z score was -1.02.
`O=C(Cc1c[nH]c2ccccc12)Nc1ccn(CCc2ccncc2)n1` was tested, and the “% Inhibition” value was -4% and the Z score was 0.51.
In the case of `O=C1NC2=Nc3ccccc3NC(c3ccccc3)=C2[C@H](c2ccc(O)cc2)N1`, the “% Inhibition” value is reported as -8% and the Z score is reported as 1.1.
With `Cc1nccc(O[C@H]2CCCN(S(C)(=O)=O)C2)n1` the “% Inhibition” value was 0% and the Z score was 0.09.
In the case of `CN1C(=O)C2(CCN(C(=O)CN3C(=O)OC(C)(C)C3=O)CC2)c2ccccc21`, the “% Inhibition” value is reported as -7% and the Z score is reported as 0.88.
With `c1ccc(-c2nc3cnccn3c2Nc2ccc3c(c2)OCCO3)cc1` the “% Inhibition” value was -21% and the Z score was 3.09.
`COc1ccc(CC(=O)Nc2csc3nc(=O)c(C)nn23)cc1OC` was tested, and the “% Inhibition” value was -4% and the Z score was 0.34.
With `O=S(=O)(Nc1ccc(Cl)c(Cl)c1)N1CCCCCC1` the “% Inhibition” value was -3% and the Z score was 0.5.
For `N#CCCN(Cc1ccco1)C(=O)Cn1cc(C(F)(F)F)ccc1=O`, the “% Inhibition” value was -9% and the Z score was 1.44.
In the case of `O=C1CN(c2ccc(NC(=O)NCc3ccco3)cn2)CCN1`, the “% Inhibition” value is reported as 8% and the Z score is reported as -1.03.
For `O=C(COc1ccccc1Br)N(C1CCCC1)[C@H]1CCS(=O)(=O)C1`, the “% Inhibition” value was -8% and the Z score was 1.57.
With `Cc1nnc(CN(C)[C@@H](C)C(=O)Nc2ccccn2)o1` the “% Inhibition” value was -6% and the Z score was 0.81.
In the case of `CS(=O)(=O)n1nc(-c2cccs2)nc1NCc1ccc(Cl)cc1`, the “% Inhibition” value is reported as -48% and the Z score is reported as 5.62.
With `O=C(Cc1n[nH]c(=O)[nH]1)N1CCO[C@@H](CC(c2ccccc2)c2ccccc2)C1` the “% Inhibition” value was 1% and the Z score was -0.13.
In the case of `O=S(=O)(NC1CCCC1)[C@H]1CCCN(S(=O)(=O)c2cccnc2)C1`, the “% Inhibition” value is reported as -20% and the Z score is reported as 2.01.
`C[C@@H](C(=O)NCCc1cnccn1)n1cc(Cl)cn1` was tested, and the “% Inhibition” value was 4% and the Z score was -0.57.
`CCn1cc(CNC(=O)NC2CCCCC2)c(C)n1` was tested, and the “% Inhibition” value was -5% and the Z score was 0.97.
`O=C(NC1CCN(C(=O)N2CCCCC2)CC1)c1ccnnc1` was tested, and the “% Inhibition” value was -6% and the Z score was 0.77.
`CCCC1CC(C)(c2csc(NCCNc3nc(C4(C)CC(CCC)C(=O)O4)cs3)n2)OC1=O` (stereo not drawn) was tested, and the “% Inhibition” value was 4% and the Z score was -0.58.
In the case of `Cn1nc(C(=O)Nc2nc(-c3c(F)cccc3F)n[nH]2)ccc1=O`, the “% Inhibition” value is reported as 1% and the Z score is reported as -0.17.
For `Cc1cc(C(=O)N(C)c2ccnn2C)c(F)cc1F`, the “% Inhibition” value was 16% and the Z score was -1.88.
`CC1=C[C@@H](CNC(=O)CC2(CC(=O)O)CCCC2)[C@H](C(C)C)C[C@H]1Cc1nc2ccc(F)cc2[nH]1` was tested, and the “% Inhibition” value was 0% and the Z score was 0.02.
With `COc1ncc(CN(CCc2ccc(Cl)cc2)Cc2cccnc2)cn1` the “% Inhibition” value was 6% and the Z score was -1.14.
`O=C(C1C2C(=O)N(CCc3ccncc3)C[C@@]23C=C[C@@H]1O3)N1CCC1` (stereo partly drawn) was tested, and the “% Inhibition” value was 0% and the Z score was -0.02.
`C[C@@H](CCC1CC1)Nc1ncnc2ccccc12` was tested, and the “% Inhibition” value was 6% and the Z score was -1.21.
`CC(C)NC(=O)COC(=O)c1cccc(F)c1` was tested, and the “% Inhibition” value was -3% and the Z score was 0.39.
With `Cc1nc(CC(=O)N2CCN(S(C)(=O)=O)CC2)c(C)s1` the “% Inhibition” value was -11% and the Z score was 2.
With `Cc1nc(CC[C@H]2CCN(C(=O)c3ccncn3)C2)no1` the “% Inhibition” value was 2% and the Z score was -0.37.
With `CC(C)CN1CCN(C(=O)c2cnc(-c3ccc4c(c3)CCO4)s2)CC1=O` the “% Inhibition” value was -19% and the Z score was 3.65.
With `CN(Cc1ccccc1)Cc1cccc(C(=O)N[C@H]2CCc3ncnn3C2)c1` the “% Inhibition” value was -11% and the Z score was 1.09.
`Cc1cccc(Cl)c1NC(=O)N1CCC2(C1)OCCO2` was tested, and the “% Inhibition” value was -8% and the Z score was 0.94.
With `CN(CCn1ccnc1)C(=O)[C@@H]1CCc2ccccc21` the “% Inhibition” value was 1% and the Z score was -0.17.
With `CN1CCN(Cc2cnc(-c3cccc4ccccc34)nc2)C[C@@H]1CCO` the “% Inhibition” value was -9% and the Z score was 1.11.
With `Cc1ccc(Cl)cc1NC(=O)CN1C(=O)CCn2nc(-c3cn(C)c4ccccc34)cc21` the “% Inhibition” value was -2% and the Z score was 0.36.
For `CC(NC(=O)N1CC(C)C1c1ccccc1)c1nncn1C` (stereo not drawn), the “% Inhibition” value was 29% and the Z score was -3.23.
In the case of `COc1ccnc(C(=O)N2CC3CCC2C3)c1` (stereo not drawn), the “% Inhibition” value is reported as -9% and the Z score is reported as 1.11.
For `Cc1nc(-c2cccc(F)c2)nc(N2CCN(C(=O)Nc3cccc4ccccc34)CC2)c1Cc1ccccc1`, the “% Inhibition” value was 2% and the Z score was -0.24.
With `O=C(Cn1c2c(c3ccccc31)CCC2)NC[C@H]1CCS(=O)(=O)C1` the “% Inhibition” value was 5% and the Z score was -0.6.
With `Nc1c(S(=O)(=O)c2ccccc2)c2nc3ccccc3nc2n1Cc1ccc2c(c1)OCO2` the “% Inhibition” value was -12% and the Z score was 1.04.
With `O=S1(=O)NC[C@H](O)CN(Cc2ccccc2)C[C@@]2(COc3ccccc31)C[C@@H](O)[C@@H](O)C2` the “% Inhibition” value was 27% and the Z score was -3.
